PubChem BioAssay AID1768 (National Center for Advancing Translational Sciences (NCATS), 2009)
In all, about 270,000 compounds went through this assay and about 620 (0.23%) were called active. Inconclusive means that the source gave no clear call. Such entries were picked first, then a sample of the others. Calls come from the whole dose curve; as a rule, active = well fitted inhibition curve with a large enough effect in the polarisation, with a control signal flat (not every such curve was filed as active); inconclusive = small, poorly fitted or top-dose-only effect, or effect the other way, or a change in a side signal; inactive = no such curve, though single readings can be large or run the other way; the % refers to the polarisation. Where the call is inconclusive, the potency comes from a doubtful curve fit. A note “side channel” means that the fit belongs to a control or component signal, not to the main read-out.

Target: Menin (Homo sapiens) (UniProt O00255)
Assay: qHTS Assay for Inhibitors Targeting the Menin-MLL Interaction in MLL Related Leukemias: Competition With Texas Red Labeled MLL-derived Mutant Peptide
Conditions: fluorescence polarization; series mostly up to 61.6 µM
Potency is the fitted concentration of half-maximal effect; tags give direction and shape of the fitted curve or compound fluorescence and quenching.

Sequence of UniProt O00255 (O00255 whole entry, looked up): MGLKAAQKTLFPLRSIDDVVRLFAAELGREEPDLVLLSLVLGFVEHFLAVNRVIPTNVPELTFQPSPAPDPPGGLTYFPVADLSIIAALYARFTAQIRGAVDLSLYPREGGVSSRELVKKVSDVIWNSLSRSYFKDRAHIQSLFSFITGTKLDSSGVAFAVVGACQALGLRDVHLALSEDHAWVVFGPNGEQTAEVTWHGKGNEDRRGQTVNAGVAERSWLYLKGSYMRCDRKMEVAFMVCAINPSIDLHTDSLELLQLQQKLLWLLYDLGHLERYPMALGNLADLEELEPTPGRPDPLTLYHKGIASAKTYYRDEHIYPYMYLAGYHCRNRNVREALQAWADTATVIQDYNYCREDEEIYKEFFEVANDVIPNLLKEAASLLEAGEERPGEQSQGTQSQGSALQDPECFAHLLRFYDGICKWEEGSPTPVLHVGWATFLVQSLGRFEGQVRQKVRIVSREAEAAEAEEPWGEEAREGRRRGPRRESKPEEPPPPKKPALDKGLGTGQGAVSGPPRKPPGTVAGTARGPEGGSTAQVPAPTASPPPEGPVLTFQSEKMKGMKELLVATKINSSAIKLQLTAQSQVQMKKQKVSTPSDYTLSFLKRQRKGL

Potency, inactive:
COc1ccc(-c2cc(OC)c3ccccc3n2)cc1, Cc1c(-c2ccnc3cc(C(=O)O)nn23)cnn1C, Cc1ccc(N(C(=O)Cn2nnc3ccccc32)C(C(=O)NCc2ccco2)c2cccnc2)cc1 (configuration not stated), COc1cc(C2C3CN(C)CC=C3C(C#N)=C(N)C2(C#N)C#N)ccc1OC(C)C (configuration not stated), Cc1ccc(/C=N/n2c(=O)c(C(C)(C)C)nn3cnnc23)cc1

Potency, inconclusive:
O=C(O)[C@@H]1C[C@H](C(=O)O)N1 6.31 µM [inhibitor, single point], N#Cc1ccccc1-c1cncnc1NCc1cccnc1 39.8 µM [inhibitor, single point], Cc1ccc2nc(-c3cccnc3)cc(C(=O)Nc3ccccc3[N+](=O)[O-])c2c1 22.4 µM [quencher, side channel, single point], O=S(=O)(Nc1nc2ccccc2nc1NCc1ccco1)c1ccc(Cl)cc1 17.8 µM [quencher, side channel, partial curve], Cc1cccc(Sc2nc(-c3ccccc3)ncc2C(=O)O)c1 17.8 µM [quencher, side channel, partial curve], COc1cccc(/C=N/NC(=O)c2[nH]c(C)c(C(=O)N/N=C/c3cccc(OC)c3O)c2C)c1O 17.8 µM [quencher, side channel, partial curve, poor fit], COc1ccc(NS(=O)(=O)c2csc(C(=O)Nc3ccccc3)c2)cc1 12.6 µM [quencher, side channel, partial curve], CCOC(=O)N1CCN(CC(O)COc2ccc(C(C)C)c(C)c2)CC1 (configuration not stated) 20 µM [fluorescent, side channel, partial curve], O=C(Nc1nnc(SCc2c(Cl)cccc2Cl)s1)C1CCCO1 (configuration not stated) 17.8 µM [inhibitor, partial curve], CCOC(=O)c1[nH]c(C)c(C(=O)OCC(=O)N2CCCCC2C)c1C (configuration not stated) 44.7 µM [inhibitor, partial curve], COc1ccc(C(O)C(CN2CCOCC2)c2ccccc2)cc1F (configuration not stated) 39.8 µM [inhibitor, single point], CC(C)C(c1nnnn1Cc1ccc(F)cc1)N1CCN(C2CCCCC2)CC1 (configuration not stated) 22.4 µM [inhibitor, partial curve, poor fit], CN(Cc1ccc(OCC(O)CN2CCCCC2)cc1)Cc1ccnc2ccccc12 (configuration not stated) 20 µM [fluorescent, side channel, partial curve], Cc1ccc(NC(=O)C(Cc2ccccc2)N2C(=O)C3C4CCC(C4)C3C2=O)cc1Cl (configuration not stated) 6.31 µM [inhibitor, partial curve], O=C(Nc1nc2ccccc2s1)NC1CCCCC1 14.1 µM [quencher, side channel, partial curve], Cc1nn(CC2CCCCC2)c(N)c1-c1ccccc1 3.55 µM [fluorescent, side channel, partial curve], O=C(Nc1ccc(N2CCCCC2)c(Cl)c1)c1ncn[nH]1 25.1 µM [quencher, side channel, partial curve], CC12CCC(C(=O)N(CSC(=S)N/N=C\c3ccccc3O)C1=O)C2(C)C (configuration not stated) 2 µM [quencher, side channel, partial curve], COc1ccc(/C(C)=N/Nc2nncc3ccccc23)cc1 2.82 µM [quencher, side channel, partial curve], COc1ccc(Cl)cc1Nc1nc(-c2sc(NC(=O)c3ccccc3)nc2C)cs1 6.31 µM [quencher, side channel, partial curve], COc1ccccc1/C=N/NC(=O)c1ccc(=O)n(C)c1 5.62 µM [inhibitor, single point], CCOc1ccc(C(CCc2ccccc2)NC(=O)c2ccccc2OC)cc1OCC (configuration not stated) 3.16 µM [fluorescent, side channel, partial curve], N=c1c2c(-c3ccccc3)c(-c3ccccc3)n(Cc3ccco3)c2ncn1Cc1ccccc1 1.58 µM [fluorescent, side channel, full curve], Cc1cc(OCCN2CCOCC2)ccc1C(C)C 35.5 µM [inhibitor, single point], COc1ccc(S(=O)(=O)n2ccc(-c3ccc(OCCN(C)c4ccccn4)cc3)n2)cc1 3.55 µM [inhibitor, single point], O=C(N/N=C/c1c[nH]c2ccc(Br)cc12)c1ccn(Cc2ccc(Cl)cc2)n1 4.47 µM [quencher, side channel, full curve, poor fit], O=[N+]([O-])c1cccc(-c2nnn(C34CC5CC(CC(C5)C3)C4)n2)c1 8.91 µM [inhibitor, single point], CN(Cc1ccccn1)C(=O)CC1C(=O)NCCN1Cc1cccc(Oc2ccccc2)c1 (configuration not stated) 28.2 µM [fluorescent, side channel, partial curve], CCc1cccc2cc3c(N)c(C(=O)Nc4ccc(S(=O)(=O)N5CCCC5)cc4)sc3nc12 15.8 µM [quencher, side channel, single point], COc1cccc(CN(C)C(=O)c2ccc(Oc3ccccc3)cc2)c1OC 39.8 µM [fluorescent, side channel, single point], COc1ccc(C(=O)COC(=O)c2ccc(NC(=O)c3ccccc3)cc2)cc1 28.2 µM [inhibitor, single point], CC(C)N(C(=O)CSc1nc2ccccc2c(=O)[nH]1)C(C)C 15.8 µM [fluorescent, side channel, partial curve]
